# Experimental data: PubChem BioAssay (NCATS)
# Inconclusive results, whose numbers are uncertain, are shown with a selection of clear calls. For part of these data: Potencies of inconclusive entries are doubtful fits and often do not repeat. For part of these data: “Side channel” marks fits to a control or component signal instead of the main read-out. Some compounds were tested as several samples or in several runs, with calls that do not always agree. Active and inactive are the calls of the source. Unless noted, calls follow the shape of the dose curve; as a rule, active = well fitted curve in the direction sought with a large enough effect; inconclusive = small, poorly fitted or top-dose-only effect, or another doubt; inactive = no such curve, though single readings can be large; an effect the other way counts as inactive or inconclusive.
# Columns and labels:
# [1] = Primary qHTS for inhibitors of nuclear receptor binding SET domain protein 2 (NSD2) in an RCH-ACV wild type WT cells (2C) (AID 1645877); conditions: activity change, negative = cell killing: at 44.9 µM (top of the series) unless noted; also: nearly all actives have a fitted effect of over 70% in size; also: potency is read from the fitted curve at half-maximal effect; as to activity change, negative = cell killing: % is scaled to controls: 0 for no effect and ±100 for the full control effect
# [2] = biological target: Phospholipid hydroperoxide glutathione peroxidase GPX4 (Homo sapiens) (UniProt P36969); experiment: Primary qHTS Assay for Inhibitors of Recombinant Selenoprotein Glutathione Peroxidase 4 (GPX4) (AID 1845192); conditions: activity change, negative = inhibition: at 50 µM (top of the series) unless noted; also: nearly all actives have a fitted effect of over 65% in size; also: potency is read from the fitted curve at half-maximal effect; as to activity change, negative = inhibition: % is scaled to controls: 0 for no effect and ±100 for the full control effect
# In short: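 qHTS, GR-coupled: GPX4 200 nM + cpd 30 min RT → GSH 1 mM, NADPH 0.5 mM, GR 100 nM → CHP 0.5 mM start; fluor 340/450 at t0 and t15 min; no-enzyme wells as control.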
# [3] = qHTS Assay for Identifying Gametocytocidal Compounds (AID 743244); also: potency is read from the fitted curve at half-maximal effect;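 as to max response: % is scaled to controls: 0 for no effect and ±100 for the full control effect; actives lower the fluorescent signal which means gametocytes are killed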; conditions: P. falciparum 3D7 stage III-V gametocytes, alamarBlue, 72 h; max response: hits give low values
# In short: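 P. falciparum 3D7 stage III–V gametocytes (20,000 cells/well) were exposed to compounds for 72 h at 37 °C, 5% CO2. AlamarBlue was then added for 24 h; decreased resorufin fluorescence (Ex 525/Em 598 nm) indicated loss of viability.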
# [4] = qHTS Assay for Identification of Small Molecule Antagonists for NFkB Signaling Pathway (AID 895; active = well fitted inhibition curve with a large enough effect in the signal ratio, with a control signal flat, not every such curve was filed as active; inconclusive = small, poorly fitted or top-dose-only effect, or effect the other way, or a change in a side signal; the % refers to the signal ratio; also: potency is read from the fitted curve at half-maximal effect); conditions: NFkB beta-lactamase reporter cells, FRET ratio 460/530, stimulated with 10 pM TNF alpha; activity change, negative = inhibition: at 38.3 µM (top of the series)
# In short: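 NFkB-bla ME-180 cervical carcinoma cells with beta-lactamase reporter under NFkB response element; compounds added, then TNF alpha at 10 pM final (EC50), 5 h at 37 C. LiveBLAzer substrate 2 h, room temperature; emission 460/530 nm at 405 nm excitation.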
# [5] = biological target: Muscarinic acetylcholine receptor M1 (Rattus norvegicus) (UniProt P08482); experiment: qHTS Assay for Antagonists of Acetylcholine Muscarinic M1 Receptor: Measurement of IP-One Response (AID 944); also: nearly all actives have a fitted effect of over 75% in size
# [6] = qHTS for differential inhibitors of proliferation of Plasmodium falciparum line GB4 (AID 1816); conditions: Potency: Plasmodium falciparum GB4 proliferation inhibition;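 also: potency is read from the fitted curve at half-maximal effect; parasite growth measured after 72 h incubation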
# [7] = qHTS for differential inhibitors of proliferation of Plasmodium falciparum line D10 (AID 1877);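 also: potency is read from the fitted curve at half-maximal effect; parasites grown with compound for 72 h before DNA staining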
# [8] = biological target: Ferritin light chain (Equus caballus) (UniProt P02791); experiment: qHTS Validation Assay for Identification of Novel General Anesthetics (AID 2323); also: potency is read from the fitted curve at half-maximal effect
# In short: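 Horse-spleen apoferritin (10 uM) in PBS with 50% saturated 1-aminoanthracene; compounds pin-transferred, 10 min at room temperature. Fluorescence read at 380/535 nm, normalized to free 1-AMA and 1-AMA/apoferritin values; four-parameter Hill fit.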
# [9] = Cytometric Cell-Based qHTS for Inhibitors of the mTORC1 Signaling Pathway in MEF (Tsc2-/-, p53-/-) Cells (AID 2660); also: potency is read from the fitted curve at half-maximal effect
# In short: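 Readout: Alexa-488 phospho-rpS6 (Ser235/236) intensity divided by PI intensity, thresholded against 7.5 nM rapamycin wells and reported as % positive cells. PI cell count served as the viability measure. Compound exposure was 24 hrs at 37 degree Celsius.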
# [10] = biological target: Thioredoxin reductase 1, cytoplasmic (Rattus norvegicus) (UniProt O89049); experiment: qHTS Assay for Inhibitors of Mammalian Selenoprotein Thioredoxin Reductase 1 (TrxR1) (AID 488773); conditions: Potency: inhibition; also: potency is read from the fitted curve at half-maximal effect; nearly all actives have a fitted effect of over 40% in size
# In short: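 Inhibition is scored from the loss of NADPH fluorescence between first and last reads of an 8-min kinetic run. Selenite (400 uM) was the substrate, added after 15 min compound preincubation at room temperature.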
# [11] = biological target: Chromobox protein homolog 1 (Homo sapiens) (UniProt P83916); experiment: qHTS Validation Assay for Inhibitors of HP1-beta Chromodomain Interactions with Methylated Histone Tails (AID 488953); also: potency is read from the fitted curve at half-maximal effect; nearly all actives have a fitted effect of over 50% in size
# In short: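 Compounds pinned into a preassembled complex of HP1-beta and trimethyl-K9 histone H3(1-18) biotin peptide (50 nM each; PBS pH 7.4, 0.01% Tween-20). After 30 min, bead-based AlphaScreen detection followed.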
# [12] = biological target: Glutaminase kidney isoform, mitochondrial (Homo sapiens) (UniProt O94925); experiment: qHTS for Inhibitors of Glutaminase (GLS): LOPAC Validation (AID 624146); also: potency is read from the fitted curve at half-maximal effect; nearly all actives have a fitted effect of over 60% in size
# In short: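 Read-out is an Amplex red fluorescence increase coupled through glutamate oxidase and HRP, measured before and after 30 min room-temperature incubation. hKGA is in 45 mM KH2PO4 (pH 8.2) with 0.02% Tween-20; glutamine added as 1mM solution.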
# Papain (Carica papaya) = Papain (Carica papaya) (UniProt P00784); experiment: Primary qHTS assay for inhibitors of the protease papain (AID 1645873);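 also: papain turnover of Z-FR-AMC read as the AMC fluorescence gain over 10 min; potency is read from the fitted curve at half-maximal effect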
# [13] = qHTS Assay for Identification of Small Molecule Antagonists for Thrombopoietin (TPO) Signaling Pathway (AID 918); conditions: TPO-dependent cell signaling reporter, antagonist mode; activity change, negative = inhibition: at 38.5 µM (top of the series); also: potency is read from the fitted curve at half-maximal effect; nearly all actives have a fitted effect of over 60% in size
# In short: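 Antagonist mode at EC50 TPO (26 pM) in IL-3-free medium; murine Ba/F3 cells with human TPO receptor and GPIIb-promoter luciferase, 24 hrs at 37 C before luminescent detection.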
# [14] = qHTS for differential inhibitors of proliferation of Plasmodium falciparum line 7G8 (AID 1815);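 also: potency is read from the fitted curve at half-maximal effect; parasite growth measured after three days of incubation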
# [15] = qHTS for differential inhibitors of proliferation of Plasmodium falciparum line Dd2 (AID 1882); conditions: Potency: Plasmodium falciparum Dd2 proliferation inhibition; also: potency is read from the fitted curve at half-maximal effect; nearly all actives have a fitted effect of over 65% in size
# In short: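 RBC culture, 0.3% parasitemia / 2.5% Hct final; cpd added by pin tool in DMSO; 72 h, 37 C, 5% CO2; lysis buffer + SYBR Green I, o/n RT dark; FI 485/535; norm. to artemisinin 0.29 uM and DMSO.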
# [16] = biological target: D(1A) dopamine receptor (Homo sapiens) (UniProt P21728); experiment: HTS Assay for Allosteric Agonists of the Human D1 Dopamine Receptor: Primary Screen for Antagonists (AID 488983); conditions: D1 receptor cell assay, antagonist mode, qHTS titration; activity change, negative = inhibition: at 41.8 µM (top of the series);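 also: calcium flux response to an EC80 dopamine challenge measured with no-wash dye; potency is read from the fitted curve at half-maximal effect; nearly all actives have a fitted effect of over 65% in size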
# In short: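 In this primary screen, compounds are applied to calcium-dye-loaded HEK293 T-REx cells with force-coupled D1 expression induced overnight at 30 C. An EC80 of dopamine follows the 180 s compound phase, and calcium is monitored for a further 180 s.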
# [17] = biological target: N-terminal Xaa-Pro-Lys N-methyltransferase 1 (Homo sapiens) (UniProt Q9BV86); experiment: qHTS Assay for Inhibitors of N-terminal methyltransferase 1 (NTMT1): LOPAC validation of the NTMT1 SAHH-coupled ThioGlo3 Assay (AID 1347143);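 also: SAH from peptide methylation measured as thiol fluorescence via SAHH coupling and ThioGlo3; potency is read from the fitted curve at half-maximal effect; nearly all actives have a fitted effect of over 70% in size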
# In short: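 In this qHTS pilot against the LOPAC set, 125nM NTMT1 met compounds tested at multiple concentrations, and fluorescence was normalized to background.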
# Tags tell the direction and shape of the fitted curve or compound fluorescence and quenching.
# UniProt P36969, sequence (P36969 whole entry, looked up): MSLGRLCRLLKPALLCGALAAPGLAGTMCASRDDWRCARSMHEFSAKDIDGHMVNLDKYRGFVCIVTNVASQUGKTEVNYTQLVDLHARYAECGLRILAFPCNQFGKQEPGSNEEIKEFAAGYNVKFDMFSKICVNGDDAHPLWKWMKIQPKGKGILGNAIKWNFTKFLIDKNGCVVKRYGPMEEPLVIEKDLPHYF
# UniProt P00784, sequence (P00784 whole entry, looked up): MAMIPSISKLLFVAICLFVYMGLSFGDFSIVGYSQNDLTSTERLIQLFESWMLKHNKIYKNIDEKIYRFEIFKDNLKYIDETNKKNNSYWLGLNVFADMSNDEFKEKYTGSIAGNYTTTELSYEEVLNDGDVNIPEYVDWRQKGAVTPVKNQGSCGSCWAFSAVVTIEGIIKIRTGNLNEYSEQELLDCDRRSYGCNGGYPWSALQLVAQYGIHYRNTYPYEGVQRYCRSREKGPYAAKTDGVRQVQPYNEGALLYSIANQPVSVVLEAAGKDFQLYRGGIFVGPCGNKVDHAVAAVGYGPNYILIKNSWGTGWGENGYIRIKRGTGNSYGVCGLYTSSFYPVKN
# UniProt O89049, sequence (O89049 whole entry, looked up): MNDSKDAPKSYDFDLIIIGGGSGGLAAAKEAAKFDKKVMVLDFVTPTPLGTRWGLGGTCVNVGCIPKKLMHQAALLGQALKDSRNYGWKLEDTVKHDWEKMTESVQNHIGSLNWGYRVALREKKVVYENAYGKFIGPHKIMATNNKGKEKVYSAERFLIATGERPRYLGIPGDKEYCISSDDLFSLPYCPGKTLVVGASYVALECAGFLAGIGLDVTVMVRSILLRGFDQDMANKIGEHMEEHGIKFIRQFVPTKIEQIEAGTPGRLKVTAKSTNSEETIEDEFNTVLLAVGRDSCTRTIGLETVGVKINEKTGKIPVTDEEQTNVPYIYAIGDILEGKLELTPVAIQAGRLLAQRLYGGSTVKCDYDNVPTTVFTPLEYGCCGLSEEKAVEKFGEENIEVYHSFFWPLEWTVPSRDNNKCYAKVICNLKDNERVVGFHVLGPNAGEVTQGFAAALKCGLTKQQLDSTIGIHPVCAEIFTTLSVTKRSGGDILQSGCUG
# UniProt P83916, sequence (P83916 whole entry, looked up): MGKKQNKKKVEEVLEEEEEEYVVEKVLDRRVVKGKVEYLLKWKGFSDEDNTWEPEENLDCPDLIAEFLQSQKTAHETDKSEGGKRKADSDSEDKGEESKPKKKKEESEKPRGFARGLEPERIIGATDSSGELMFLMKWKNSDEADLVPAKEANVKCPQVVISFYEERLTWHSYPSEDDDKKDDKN
# UniProt P21728, sequence (P21728 whole entry, looked up): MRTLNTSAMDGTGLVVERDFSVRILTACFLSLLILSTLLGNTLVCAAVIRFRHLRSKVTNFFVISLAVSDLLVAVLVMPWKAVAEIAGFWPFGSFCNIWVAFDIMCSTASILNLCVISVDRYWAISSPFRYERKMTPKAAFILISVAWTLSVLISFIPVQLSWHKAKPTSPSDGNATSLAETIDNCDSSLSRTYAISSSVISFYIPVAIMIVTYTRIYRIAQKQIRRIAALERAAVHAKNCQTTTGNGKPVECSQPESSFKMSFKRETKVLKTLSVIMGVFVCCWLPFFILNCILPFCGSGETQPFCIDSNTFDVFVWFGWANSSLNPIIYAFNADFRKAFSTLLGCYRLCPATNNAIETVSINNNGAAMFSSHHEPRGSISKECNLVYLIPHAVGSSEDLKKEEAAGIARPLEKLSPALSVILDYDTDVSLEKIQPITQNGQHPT
# UniProt Q9BV86, sequence (Q9BV86 whole entry, looked up): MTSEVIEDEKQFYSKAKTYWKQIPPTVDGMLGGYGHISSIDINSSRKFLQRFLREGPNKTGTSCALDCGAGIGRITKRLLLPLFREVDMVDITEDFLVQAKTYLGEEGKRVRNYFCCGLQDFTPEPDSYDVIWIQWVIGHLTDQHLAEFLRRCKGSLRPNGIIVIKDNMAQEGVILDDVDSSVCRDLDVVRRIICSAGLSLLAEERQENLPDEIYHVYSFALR
# UniProt P08482, sequence (P08482 whole entry, looked up): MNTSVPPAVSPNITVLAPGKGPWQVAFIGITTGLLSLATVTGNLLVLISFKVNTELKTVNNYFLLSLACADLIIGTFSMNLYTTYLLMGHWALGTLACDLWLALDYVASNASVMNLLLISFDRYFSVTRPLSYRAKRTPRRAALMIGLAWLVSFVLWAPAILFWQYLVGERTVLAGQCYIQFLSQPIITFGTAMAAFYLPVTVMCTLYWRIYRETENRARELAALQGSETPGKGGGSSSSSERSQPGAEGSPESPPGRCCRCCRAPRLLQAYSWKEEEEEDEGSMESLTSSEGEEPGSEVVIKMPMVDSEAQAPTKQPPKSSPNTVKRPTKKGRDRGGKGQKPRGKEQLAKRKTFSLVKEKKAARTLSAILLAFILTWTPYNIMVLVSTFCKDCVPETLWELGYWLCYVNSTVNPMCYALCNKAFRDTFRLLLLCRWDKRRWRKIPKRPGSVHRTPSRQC
# UniProt P02791, sequence (P02791 whole entry, looked up): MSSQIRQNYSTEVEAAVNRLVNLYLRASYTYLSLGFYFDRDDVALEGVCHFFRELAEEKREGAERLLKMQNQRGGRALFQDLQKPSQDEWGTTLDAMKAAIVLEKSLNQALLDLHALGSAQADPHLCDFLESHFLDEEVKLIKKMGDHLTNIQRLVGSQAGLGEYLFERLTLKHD
# UniProt O94925, sequence (O94925 whole entry, looked up, canonical isoform): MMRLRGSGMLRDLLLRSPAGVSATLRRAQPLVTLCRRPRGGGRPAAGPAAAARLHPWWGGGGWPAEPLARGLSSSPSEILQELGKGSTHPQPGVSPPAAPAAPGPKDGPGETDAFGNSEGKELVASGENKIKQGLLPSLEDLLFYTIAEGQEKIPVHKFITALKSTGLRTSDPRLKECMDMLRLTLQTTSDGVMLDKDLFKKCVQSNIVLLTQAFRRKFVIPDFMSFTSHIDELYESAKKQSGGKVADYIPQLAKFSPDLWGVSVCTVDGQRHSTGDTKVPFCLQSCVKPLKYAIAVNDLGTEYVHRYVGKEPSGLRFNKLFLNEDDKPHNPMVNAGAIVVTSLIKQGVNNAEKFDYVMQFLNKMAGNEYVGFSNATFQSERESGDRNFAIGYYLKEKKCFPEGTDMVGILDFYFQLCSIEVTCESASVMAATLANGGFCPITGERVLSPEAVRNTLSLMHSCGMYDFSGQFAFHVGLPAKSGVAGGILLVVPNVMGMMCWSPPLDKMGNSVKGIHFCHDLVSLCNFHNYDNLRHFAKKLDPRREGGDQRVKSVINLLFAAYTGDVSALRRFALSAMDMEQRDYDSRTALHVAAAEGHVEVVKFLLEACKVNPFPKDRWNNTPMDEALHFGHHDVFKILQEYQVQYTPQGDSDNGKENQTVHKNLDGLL
smiles,measurement,setting,value
C=C1[C@H](OC(C)=O)[C@H]2[C@@H](OC(C)=O)[C@](C)(OC(C)=O)C[C@]2(OC(C)=O)C(=O)[C@H](C)/C=C/C(C)(C)C(=O)[C@H](OC(=O)C(C)C)[C@H]1OC(C)=O,Potency,[1],"inconclusive: 1.92 µM [inhibitor, single point]"
O=c1cc(N2CCNCC2)oc2c(-c3ccccc3)cccc12,Potency,[1],"inconclusive: 29.1 µM [inhibitor, partial curve, poor fit]"
CCCn1cnc2c(NCc3ccc(C)s3)nc(N[C@H](CC)CO)nc21,Potency,[1],"inconclusive: 16.4 µM [inhibitor, single point]"
COc1cc2ncnc(Nc3ccc(NC(=O)c4ccccc4)cc3)c2cc1OC,Potency,[1],active: 5.8 µM
C[C@@H](NC(=O)c1cc(C(=O)N[C@@H](Cc2ccccc2)[C@H](O)CNC2CC2)cc(N(C)S(C)(=O)=O)c1)c1ccccc1,Potency,[1],"inconclusive: 12.9 µM [inhibitor, partial curve]"
Cn1nc(C(C)(C)C)cc1C(=O)NC(Cc1cccc(Cl)c1)C(=O)NCC#N (centres undefined),Potency,[1],"inconclusive: 18.3 µM [inhibitor, single point]"
CC(C)n1cnc2c(NCc3cccc(C(F)(F)F)c3)ncnc21,Potency,[1],"inconclusive: 29.1 µM [inhibitor, single point]"
Cc1cc(/C=c2/sc3nc4ccccc4n3c2=O)c(C)n1-c1ccccc1,Potency,[1],"inconclusive: 20.6 µM [inhibitor, partial curve]"
same,Potency,[2],"inconclusive: 18 µM [inhibitor, single point]"
CC(C)n1nc(Cc2cccc3ccccc23)c2c(N)ncnc21,Potency,[1],"inconclusive: 29.1 µM [inhibitor, single point]"
Cc1ccc(C(=O)/C=C/c2ccccc2)s1,Potency,[1],"inconclusive: 29.1 µM [inhibitor, single point]"
Nc1ccn([C@H]2O[C@@H](CO)[C@H](O)[C@H]2O)c(=O)n1,Potency,[1],active: 0.0164 µM
COc1ccc(CCNCc2ccc(OCc3ccc(Cl)nc3)c(OC)c2)cc1OC,Potency,[1],"inconclusive: 16.4 µM [inhibitor, single point]"
c1ccc(-c2[nH]ncc2-c2ccnc3ccccc23)nc1,Potency,[1],inactive
O=C(NOCCO)c1ccc2cncn2c1Nc1ccc(I)cc1F,Potency,[1],"inconclusive: 18.4 µM [inhibitor, single point]"
same,Potency,[2],"inconclusive: 28.6 µM [inhibitor, single point]"
S=C1SCN(Cc2ccccc2)CN1Cc1ccccc1,Potency,[3],"inconclusive: 35.5 µM [inhibitor, single point]"
same,Potency,[2],active: 15.8 µM
CCCc1nc(C(C)(C)O)c(C(=O)OCc2oc(=O)oc2C)n1Cc1ccc(-c2ccccc2-c2nn[nH]n2)cc1,Potency,[2],"inconclusive: 20 µM [inhibitor, partial curve]"
O=C(O)c1cc(O)c2c(c1)[C@H]([C@H]1c3cc(C(=O)O)cc(O)c3C(=O)c3c(O[C@@H]4O[C@H](CO)[C@@H](O)[C@H](O)[C@H]4O)cccc31)c1cccc(O[C@@H]3O[C@H](CO)[C@@H](O)[C@H](O)[C@H]3O)c1C2=O,Potency,[2],active: 1.12 µM
O=C(CCCN1CCC(n2c(=S)[nH]c3ccccc32)CC1)c1ccc(F)cc1,Potency,[3],"inconclusive: 25.1 µM [inhibitor, single point]"
same,Potency,[2],active: 4.47 µM
CN1CCC(OC(=O)C(Oc2ccc(Cl)cc2)Oc2ccc(Cl)cc2)CC1,max response,[3],inactive: 32.5%
c1ccc2c(c1)Sc1ccccc1N2CCN1CCCC1,Potency,[3],"inconclusive: 22.4 µM [inhibitor, single point]"
CC(C)NCC(O)COc1ccccc1-n1cccc1 (centres undefined),Potency,[3],"inconclusive: 35.5 µM [inhibitor, single point]"
CC(C)OC(=O)Nc1ccc2nc(-c3cscn3)[nH]c2c1,Potency,[2],"inconclusive: 17.8 µM [inhibitor, partial curve, poor fit]"
CC(C)C(N)C(=O)OCC(CO)OCn1cnc2c(=O)[nH]c(N)nc21 (centres undefined),Potency,[2],inactive
CC1=C(C(=O)OCCN(Cc2ccccc2)c2ccccc2)C(c2cccc([N+](=O)[O-])c2)C(P2(=O)OCC(C)(C)CO2)=C(C)N1 (centres undefined),Potency,[2],"inconclusive: 15.8 µM [inhibitor, partial curve]"
CCCCCOC(=O)Nc1nc(=O)n(C2O[C@H](C)[C@@H](O)[C@H]2O)cc1F (some centres undefined),Potency,[2],inactive
C=C1C(=C/C=C2\CCC[C@]3(C)[C@@H]([C@H](C)CCCC(C)(C)O)CC[C@@H]23)C[C@@H](O)C[C@@H]1O,Potency,[3],"inconclusive: 28.2 µM [inhibitor, single point]"
CC(C)(O/N=C(\C(=O)N[C@@H]1C(=O)N2C(C(=O)[O-])=C(C[n+]3ccccc3)CS[C@H]12)c1csc(N)n1)C(=O)O,Potency,[2],"inconclusive: 15.8 µM [inhibitor, single point]"
CC(C)(C)NC[C@H](O)COc1ccccc1C1CCCC1,Potency,[3],"inconclusive: 8.91 µM [inhibitor, single point]"
CCCCCCCC/C=C\CCCCCCCC(=O)NCCc1ccc(O)c(O)c1,Potency,[4],"inconclusive: 20 µM [cytotoxic, side channel, single point]"
same,Potency,[5],inactive
same,Potency,[6],active: 11.2 µM
same,Potency,[7],"inconclusive: 11.2 µM [inhibitor, single point]"
same,Potency,[8],"inconclusive: 28.2 µM [inhibitor, partial curve]"
same,Potency,[9],"inconclusive: 13.1 µM [falling, partial curve]"
same,Potency,[10],"inconclusive: 18.9 µM [inhibitor, single point]"
same,Potency,[11],"inconclusive: 39.8 µM [inhibitor, partial curve]"
same,Potency,[12],"inconclusive: 2.51 µM [inhibitor, partial curve, poor fit]"
CC(C)(C)[C@]1(O)CCN2C[C@H]3c4ccccc4CCc4cccc(c43)[C@@H]2C1,Potency,[11],"inconclusive: 50.1 µM [inhibitor, partial curve]"
same,Potency,Papain (Carica papaya),active: 15.8 µM
O=C(N[C@@H](Cc1ccccc1)C(=O)CCl)OCc1ccccc1,Potency,[4],"inconclusive: 3.16 µM [side channel, rising, single point]"
same,Potency,[13],active: 2.51 µM
same,Potency,[14],active: 8.91 µM
same,Potency,[6],active: 10 µM
same,Potency,[7],"inconclusive: 11.2 µM [inhibitor, partial curve]"
same,Potency,[15],active: 11.2 µM
same,Potency,[9],"inconclusive: 26.1 µM [falling, single point]"
same,Potency,[10],active: 21.2 µM
same,Potency,[16],"inconclusive: 4.47 µM [inhibitor, partial curve]"
same,Potency,[17],"inconclusive: 44.7 µM [inhibitor, partial curve]"
same,Potency,Papain (Carica papaya),active: 15.8 µM
